# Experimental data: PubChem BioAssay AID485341 (National Center for Advancing Translational Sciences (NCATS), 2010)
# Among all 330,000 compounds or so, about 1,700 (0.52%) were called active. Inconclusive means that the source gave no clear call. Such entries were picked first, then a sample of the others. Calls come from the whole dose curve; as a rule, active = well fitted inhibition curve with a large enough effect; inconclusive = small, poorly fitted or top-dose-only effect; inactive = no such curve, though single readings can be large or run the other way. Potencies beside an inconclusive call are fits to weak or partial responses and may not hold up.
# Biological target: Beta-lactamase (Escherichia coli (strain K12)) (UniProt P00811)
# Sequence of UniProt P00811 (P00811 whole entry, looked up): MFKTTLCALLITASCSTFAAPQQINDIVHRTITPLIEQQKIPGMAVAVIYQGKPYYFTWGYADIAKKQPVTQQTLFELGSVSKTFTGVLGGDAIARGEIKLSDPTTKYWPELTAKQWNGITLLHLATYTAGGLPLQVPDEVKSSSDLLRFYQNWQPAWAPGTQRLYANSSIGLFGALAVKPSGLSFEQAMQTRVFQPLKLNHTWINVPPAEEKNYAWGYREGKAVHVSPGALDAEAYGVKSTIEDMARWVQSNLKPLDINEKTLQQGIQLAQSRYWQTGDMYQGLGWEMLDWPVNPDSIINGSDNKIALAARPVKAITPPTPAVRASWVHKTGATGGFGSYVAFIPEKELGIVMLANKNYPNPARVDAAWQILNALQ
# Experiment: qHTS Inhibitors of AmpC Beta-Lactamase (assay without detergent); note: nearly all actives have a fitted effect of over 20% in size;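 for activity change, negative = inhibition: plate controls were no compound for no effect and no enzyme for full effect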
# Details: AmpC nitrocefin hydrolysis, absorbance 480 nm, 0.0001% Triton; activity change, negative = inhibition: at 57.1 µM (top of the series) unless noted
# In short: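 20 mM phosphate pH 7.0 + 0.01% (detergent screen) or 0.0001% Triton X-100; 5.3 nM AmpC reagent; cpd preinc 15 min RT; nitrocefin (800 uM stock) to start; A480 q20 s × 4 min; Activity was normalised to no-enzyme and no-compound control wells.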
# Potency is the fitted concentration of half-maximal effect; tags give direction and shape of the fitted curve.
Structure (SMILES),Potency,"activity change, negative = inhibition"
O=C(Nc1cccc(S(=O)(=O)N2CCCCCC2)c1)C1CC(=O)N(c2ccc3c(c2)OCCO3)C1 (stereo not given),"inconclusive: 25.1 µM [inhibitor, single point]",
CNc1ccc(/C=C/C(=O)c2cccc3ccccc23)cc1[N+](=O)[O-],active: 28.2 µM,
CCOC(=O)c1cc(-c2ccccc2)sc1NC(=O)C(C)N1C(=O)NC(C)(c2ccc(Cl)cc2)C1=O (stereo not given),"inconclusive: 3.16 µM [inhibitor, full curve, poor fit]",
COc1ccc(-c2cc(C(=O)Oc3ccc([N+](=O)[O-])cc3)c3ccccc3n2)cc1,"inconclusive: 6.31 µM [inhibitor, single point]",
Cc1ccc(C)c(OCCC(=O)OCC(=O)N(C)c2c(N)n(Cc3ccccc3)c(=O)[nH]c2=O)c1,"inconclusive: 35.5 µM [inhibitor, single point]",
Cc1[nH]c2c(ccc3cccnc32)c1C,,inactive: -13.5%
Cc1ccc(NC(=O)NC2CCCc3ccccc32)cc1 (stereo not given),"inconclusive: 11.2 µM [inhibitor, partial curve, poor fit]",
CCOc1ccc(/C=C2\SC(=S)N(CC(=O)N(CCO)C(C)(C)C)C2=O)cc1,,inactive: 1.74%
COC(=O)CN1C(=O)CC(C)(C)S(=O)c2ccccc21 (stereo not given),active: 1.26 µM,
CC1CCN(c2ccccc2NC(=S)NC(=O)C(C)(C)C)CC1,"inconclusive: 39.8 µM [inhibitor, single point]",
COc1cc([N+](=O)[O-])c2ncsc2c1,,inactive: -8.58%
NS(=O)(=O)c1ccc(NC(=O)COc2cccc3ccccc23)cc1,active: 12.6 µM,
Cc1ccccc1NC(=S)N/N=C/c1ccc(O)cc1O,"inconclusive: 6.31 µM [inhibitor, partial curve]",
CCOCCn1c(SCc2ccc(F)cc2)nc2c1c(=O)[nH]c(=O)n2C,,inactive: 4.81%
Cc1cc2c(=O)n(Cc3ccco3)c(SCC(=O)c3ccc(Cl)s3)nc2s1,active: 28.2 µM,
O=C(CSC(=S)N1CCCC1)c1cc(Br)cc(Br)c1O,"inconclusive: 20 µM [inhibitor, partial curve, poor fit]",
CCOc1ccc(CSC(=N)N)cc1,"inconclusive: 25.1 µM [inhibitor, single point]",
CN(C)S(=O)(=O)c1cc(C(=O)NCC2CCCO2)c(Cl)cc1Cl (stereo not given),"inconclusive: 6.31 µM [inhibitor, single point]",
CCOC(=O)C(=O)Nc1nccs1,,inactive: -26.2%
COc1ccc(-c2nc(C#N)c(NCC3CCCO3)o2)cc1 (stereo not given),"inconclusive: 6.31 µM [inhibitor, single point]",
